# Experimental data from the supplement of paper PMC8728848.
# Some of the results follow.
# Tests used:
# Test in all cases: glycan array binding signal (z-score within array); higher = stronger binding
# Details in all cases: glycan notation: IUPAC condensed, linker removed
# [1] = biological target: Gal4S6S(b1-4)GlcNAc
# Summary of the method: (§1)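 Glycan array data were curated from 3228 arrays in the Consortium for Functional Glycomics database and kept only where the protein sequence was available. Glycan names were converted to IUPAC-condensed notation, and columns mapping to the same glycan were averaged. The binding signal is a within-array Z-score, averaged across arrays of the same protein sequence at different concentrations or buffers and across linkers. Negative Z-scores can be read as non-binding.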
# [2] = biological target: Gal6S(b1-3)GlcNAc
# Summary of the method: as §1
# [3] = biological target: Gal6S(b1-3)GlcNAc6S
# Summary of the method: as §1
# [4] = biological target: Gal6S(b1-4)Glc
# Summary of the method: as §1
# [5] = biological target: Gal6S(b1-4)Glc6S
# Summary of the method: as §1
# [6] = biological target: Gal6S(b1-4)GlcNAc
# Summary of the method: as §1
# [7] = biological target: Gal6S(b1-4)GlcNAc6S
# Summary of the method: as §1
# [8] = biological target: GalNAc(a1-3)Gal
# Summary of the method: as §1
# [9] = biological target: GalNAc(a1-3)GalNAc
# Summary of the method: as §1
# [10] = biological target: GalNAc(a1-3)GalNAc(a1-3)Gal(a1-4)Gal(b1-4)GlcNAc
# Summary of the method: as §1
# [11] = biological target: GalNAc(a1-3)GalNAc(b1-3)Gal(a1-4)Gal(b1-4)Glc
# Summary of the method: as §1
# [12] = biological target: GalNAc(b1-3)Gal
# Summary of the method: as §1
# [13] = biological target: GalNAc(b1-3)Gal(a1-4)Gal(b1-4)GlcNAc
# Summary of the method: as §1
# [14] = biological target: GalNAc(b1-3)Gal(a1-4)Gal(b1-4)GlcNAc(b1-3)Gal(b1-4)Glc
# Summary of the method: as §1
# [15] = biological target: GalNAc(b1-3)Gal(a1-6)Gal(b1-4)Glc
# Summary of the method: as §1
# [16] = biological target: GalNAc(b1-3)GalNAc
# Summary of the method: as §1
# [17] = biological target: GalNAc(b1-4)GlcNAc
# Summary of the method: as §1
# [18] = biological target: GalNAc(b1-4)GlcNAc(b1-2)Man(a1-3)[GalNAc(b1-4)GlcNAc(b1-2)Man(a1-6)]Man(b1-4)GlcNAc(b1-4)GlcNAc
# Summary of the method: as §1
# [19] = biological target: GalNAc(b1-6)GalNAc
# Summary of the method: as §1
# [20] = biological target: Glc(a1-4)Glc
# Summary of the method: as §1
# [21] = biological target: Glc(a1-6)Glc(a1-6)Glc
# Summary of the method: as §1
# [22] = biological target: Glc(b1-4)Glc
# Summary of the method: as §1
# [23] = biological target: Glc(b1-6)Glc
# Summary of the method: as §1
# [24] = biological target: GlcA(b1-3)Gal
# Summary of the method: as §1
# [25] = biological target: GlcA(b1-3)GlcNAc
# Summary of the method: as §1
# [26] = biological target: GlcA(b1-6)Gal
# Summary of the method: as §1
# [27] = biological target: GlcNAc(a1-3)Gal(b1-4)GlcNAc
# Summary of the method: as §1
# [28] = biological target: GlcNAc(a1-4)Gal(b1-3)GlcNAc
# Summary of the method: as §1
# [29] = biological target: GlcNAc(a1-4)Gal(b1-4)GalNAc
# Summary of the method: as §1
# [30] = biological target: GlcNAc(a1-4)Gal(b1-4)GlcNAc
# Summary of the method: as §1
# [31] = biological target: GlcNAc(a1-4)Gal(b1-4)GlcNAc(b1-3)Gal(b1-4)Glc
# Summary of the method: as §1
# [32] = biological target: GlcNAc(a1-4)Gal(b1-4)GlcNAc(b1-3)Gal(b1-4)GlcNAc
# Summary of the method: as §1
# [33] = biological target: GlcNAc(a1-4)Gal(b1-4)GlcNAc(b1-3)Gal(b1-4)GlcNAc(b1-3)Gal(b1-4)GlcNAc
# Summary of the method: as §1
# [34] = biological target: GlcNAc(a1-4)Gal(b1-4)GlcNAc(b1-3)Gal(b1-4)[Fuc(a1-3)]GlcNAc(b1-3)Gal(b1-4)[Fuc(a1-3)]GlcNAc
# Summary of the method: as §1
# [35] = biological target: GlcNAc(a1-6)Gal(b1-4)GlcNAc
# Summary of the method: as §1
# [36] = biological target: GlcNAc(b1-2)Gal(b1-3)GalNAc
# Summary of the method: as §1
# [37] = biological target: GlcNAc(b1-2)Man(a1-3)[GlcNAc(b1-2)Man(a1-6)]Man(b1-4)GlcNAc(b1-4)GlcNAc
# Summary of the method: as §1
# [38] = biological target: GlcNAc(b1-2)Man(a1-3)[GlcNAc(b1-2)Man(a1-6)]Man(b1-4)GlcNAc(b1-4)[Fuc(a1-6)]GlcNAc
# Summary of the method: as §1
# [39] = biological target: GlcNAc(b1-2)Man(a1-3)[GlcNAc(b1-4)][GlcNAc(b1-2)Man(a1-6)]Man(b1-4)GlcNAc(b1-4)GlcNAc
# Summary of the method: as §1
# [40] = biological target: GlcNAc(b1-2)[GlcNAc(b1-4)]Man(a1-3)[GlcNAc(b1-2)Man(a1-6)]Man(b1-4)GlcNAc(b1-4)GlcNAc
# Summary of the method: as §1
# [41] = biological target: GlcNAc(b1-2)[GlcNAc(b1-4)]Man(a1-3)[GlcNAc(b1-4)][GlcNAc(b1-2)Man(a1-6)]Man(b1-4)GlcNAc(b1-4)GlcNAc
# Summary of the method: as §1
# [42] = biological target: GlcNAc(b1-2)[GlcNAc(b1-4)]Man(a1-3)[GlcNAc(b1-4)][GlcNAc(b1-2)[GlcNAc(b1-6)]Man(a1-6)]Man(b1-4)GlcNAc(b1-4)GlcNAc
# Summary of the method: as §1
# [43] = biological target: GlcNAc(b1-2)[GlcNAc(b1-6)]Man(a1-6)[GlcNAc(b1-2)Man(a1-3)]Man(b1-4)GlcNAc(b1-4)GlcNAc
# Summary of the method: as §1
# [44] = biological target: GlcNAc(b1-2)[GlcNAc(b1-6)]Man(a1-6)[GlcNAc(b1-2)Man(a1-3)][GlcNAc(b1-4)]Man(b1-4)GlcNAc(b1-4)GlcNAc
# Summary of the method: as §1
# [45] = biological target: GlcNAc(b1-3)Gal
# Summary of the method: as §1
# [46] = biological target: GlcNAc(b1-3)Gal(b1-3)GalNAc
# Summary of the method: as §1
# [47] = biological target: GlcNAc(b1-3)Gal(b1-4)Glc
# Summary of the method: as §1
# [48] = biological target: GlcNAc(b1-3)Gal(b1-4)GlcNAc
# Summary of the method: as §1
# [49] = biological target: GlcNAc(b1-3)Gal(b1-4)GlcNAc(b1-3)Gal(b1-4)GlcNAc
# Summary of the method: as §1
# [50] = biological target: GlcNAc(b1-3)GalNAc
# Summary of the method: as §1
# [51] = biological target: GlcNAc(b1-3)Man
# Summary of the method: as §1
# [52] = biological target: GlcNAc(b1-3)[GlcNAc(b1-4)][GlcNAc(b1-6)]GlcNAc
# Summary of the method: as §1
# [53] = biological target: GlcNAc(b1-3)[GlcNAc(b1-6)]Gal(b1-4)GlcNAc
# Summary of the method: as §1
# [54] = biological target: GlcNAc(b1-3)[GlcNAc(b1-6)]GalNAc
# Summary of the method: as §1
# [55] = biological target: GlcNAc(b1-4)Gal(b1-4)GlcNAc
# Summary of the method: as §1
# [56] = biological target: GlcNAc(b1-4)GlcNAc
# Summary of the method: as §1
# [57] = biological target: GlcNAc(b1-4)GlcNAc(b1-4)GlcNAc
# Summary of the method: as §1
# [58] = biological target: GlcNAc(b1-4)GlcNAc(b1-4)GlcNAc(b1-4)GlcNAc(b1-4)GlcNAc
# Summary of the method: as §1
# [59] = biological target: GlcNAc(b1-4)GlcNAc(b1-4)GlcNAc(b1-4)GlcNAc(b1-4)GlcNAc(b1-4)GlcNAc
# Summary of the method: as §1
# [60] = biological target: GlcNAc(b1-4)[GlcNAc(b1-6)]GalNAc
# Summary of the method: as §1
binder,measurement,setting,value
"CwpV (Clostridium difficile), B6EFG6 (protein) MKIPKKIAAMLTVTMIAGSSTAGIASAQTVATNLTGQERYETAVKISQDGWKNADEVVIVNDSSIADALSATPFAKAKNAPILLTSKDKLNDKTKAEIQRLKAKKVYLIGGTSVLSTNIEKEIKDLKISFERISGAERYQTSLELAKKLDAISDVKKIAVVNGEKGLADAVSVGAPAAQNNMPVILADSKNGTAVADKFIKDAGITQSYVVGGESSISEAVKNKLPNSTRLGGTDRNDTNAKVIKEFYKKTDLKNAYVTKDGMNKQDQLIDALAVGVLGAKNQSPVVLVGKNLSASQKSLVNSKSFDKITKVGGNGNETAFNEMKSLQEVKTVEAKTISELKSAIDKATANDVINFKPTSEVKEAFTIQTDKAVTVNLNGTYTKTVTINMPNGDVNNYAKVDDVVIDDVKDGTFVNYGKITNLKVNDKNGAKIENNSKGEIGSLTVASGASQVKVTNGGKITTVTNNSKGTTIDNKGTISSVKGDNSPTISGNSPSSNSSGGSSSSGGSSGGSSGGSSSSKVGQIKFSATDKQIKMASGDKTVDPSDNTYILKLTNGTVKDGDVKANVKVAGLPSGLDYTAVGNRSANTITITVSGTTSQSIQNDLNNVSVLVKAGAVSGTGATDSIANTTFEIKKYVAAPAVGQLTFDATDKQIKMASGDKTVDPSDDTYVLTLTKGTAKDGDIKANVEVTGLPSGLDYTAEGDSSANTITIPVSGTASPAVQTDLDNVSVLVKAGAVSETTATDSAANATFEVKKYVAPAVGQLTFDATDKQIKMASGDKTVDPSDDTYVLTLTKGTAKDGDIKANVEVTGLPSGLDYTAEGDSSANTITITVSGTASQAVQTDLDNVSVLVKAGAVSETTATDSAANATFEVKKYVAPAIGQLTFDATDKQIKMASGDKTVDPSDDTYVLTLTKGTAKDGDIKANVEVTGLPSGLDYTAEGDSSANTITITVSGTASQAVQTDLDNVSVLVKAGAVSETTATDSAANATFEVKKHASDPISTIGKISSGLSSLFNILK",glycan array binding signal (z-score),[1],-0.266
same,glycan array binding signal (z-score),[2],-0.246
same,glycan array binding signal (z-score),[3],-0.347
same,glycan array binding signal (z-score),[4],-0.318
same,glycan array binding signal (z-score),[5],-0.31
same,glycan array binding signal (z-score),[6],-0.29
same,glycan array binding signal (z-score),[7],-0.316
same,glycan array binding signal (z-score),[8],-0.339
same,glycan array binding signal (z-score),[9],-0.235
same,glycan array binding signal (z-score),[10],0.986
same,glycan array binding signal (z-score),[11],2.1
same,glycan array binding signal (z-score),[12],-0.333
same,glycan array binding signal (z-score),[13],0.762
same,glycan array binding signal (z-score),[14],6.4
same,glycan array binding signal (z-score),[15],2.68
same,glycan array binding signal (z-score),[16],-0.322
same,glycan array binding signal (z-score),[17],0.432
same,glycan array binding signal (z-score),[18],-0.06
same,glycan array binding signal (z-score),[19],1.46
same,glycan array binding signal (z-score),[20],-0.288
same,glycan array binding signal (z-score),[21],-0.21
same,glycan array binding signal (z-score),[22],-0.296
same,glycan array binding signal (z-score),[23],-0.268
same,glycan array binding signal (z-score),[24],-0.343
same,glycan array binding signal (z-score),[25],8.78
same,glycan array binding signal (z-score),[26],-0.341
same,glycan array binding signal (z-score),[27],-0.125
same,glycan array binding signal (z-score),[28],-0.16
same,glycan array binding signal (z-score),[29],-0.136
same,glycan array binding signal (z-score),[30],-0.192
same,glycan array binding signal (z-score),[31],-0.156
same,glycan array binding signal (z-score),[32],1.04
same,glycan array binding signal (z-score),[33],0.147
same,glycan array binding signal (z-score),[34],0.469
same,glycan array binding signal (z-score),[35],-0.317
same,glycan array binding signal (z-score),[36],-0.207
same,glycan array binding signal (z-score),[37],-0.124
same,glycan array binding signal (z-score),[38],-0.045
same,glycan array binding signal (z-score),[39],-0.279
same,glycan array binding signal (z-score),[40],-0.306
same,glycan array binding signal (z-score),[41],-0.317
same,glycan array binding signal (z-score),[42],-0.323
same,glycan array binding signal (z-score),[43],-0.21
same,glycan array binding signal (z-score),[44],-0.331
same,glycan array binding signal (z-score),[45],-0.279
same,glycan array binding signal (z-score),[46],-0.217
same,glycan array binding signal (z-score),[47],-0.297
same,glycan array binding signal (z-score),[48],0.234
same,glycan array binding signal (z-score),[49],0.635
same,glycan array binding signal (z-score),[50],-0.322
same,glycan array binding signal (z-score),[51],-0.319
same,glycan array binding signal (z-score),[52],-0.258
same,glycan array binding signal (z-score),[53],-0.274
same,glycan array binding signal (z-score),[54],-0.265
same,glycan array binding signal (z-score),[55],-0.302
same,glycan array binding signal (z-score),[56],0.016
same,glycan array binding signal (z-score),[57],0.952
same,glycan array binding signal (z-score),[58],0.768
same,glycan array binding signal (z-score),[59],1.05
same,glycan array binding signal (z-score),[60],-0.284
